In all, about 310,000 compounds went through this assay and about 2,200 (0.71%) showed an effect of 50% or more. Effects have a minus sign here. This is one part of the list.
Molecular target: human ether-à-go-go-related gene (hERG) potassium channel (human, UniProt Q12809)
Experiment: primary screen, population patch clamp on CHO cells stably expressing hERG

Sequence of human ether-à-go-go-related gene (hERG) potassium channel (Q12809 whole entry, looked up): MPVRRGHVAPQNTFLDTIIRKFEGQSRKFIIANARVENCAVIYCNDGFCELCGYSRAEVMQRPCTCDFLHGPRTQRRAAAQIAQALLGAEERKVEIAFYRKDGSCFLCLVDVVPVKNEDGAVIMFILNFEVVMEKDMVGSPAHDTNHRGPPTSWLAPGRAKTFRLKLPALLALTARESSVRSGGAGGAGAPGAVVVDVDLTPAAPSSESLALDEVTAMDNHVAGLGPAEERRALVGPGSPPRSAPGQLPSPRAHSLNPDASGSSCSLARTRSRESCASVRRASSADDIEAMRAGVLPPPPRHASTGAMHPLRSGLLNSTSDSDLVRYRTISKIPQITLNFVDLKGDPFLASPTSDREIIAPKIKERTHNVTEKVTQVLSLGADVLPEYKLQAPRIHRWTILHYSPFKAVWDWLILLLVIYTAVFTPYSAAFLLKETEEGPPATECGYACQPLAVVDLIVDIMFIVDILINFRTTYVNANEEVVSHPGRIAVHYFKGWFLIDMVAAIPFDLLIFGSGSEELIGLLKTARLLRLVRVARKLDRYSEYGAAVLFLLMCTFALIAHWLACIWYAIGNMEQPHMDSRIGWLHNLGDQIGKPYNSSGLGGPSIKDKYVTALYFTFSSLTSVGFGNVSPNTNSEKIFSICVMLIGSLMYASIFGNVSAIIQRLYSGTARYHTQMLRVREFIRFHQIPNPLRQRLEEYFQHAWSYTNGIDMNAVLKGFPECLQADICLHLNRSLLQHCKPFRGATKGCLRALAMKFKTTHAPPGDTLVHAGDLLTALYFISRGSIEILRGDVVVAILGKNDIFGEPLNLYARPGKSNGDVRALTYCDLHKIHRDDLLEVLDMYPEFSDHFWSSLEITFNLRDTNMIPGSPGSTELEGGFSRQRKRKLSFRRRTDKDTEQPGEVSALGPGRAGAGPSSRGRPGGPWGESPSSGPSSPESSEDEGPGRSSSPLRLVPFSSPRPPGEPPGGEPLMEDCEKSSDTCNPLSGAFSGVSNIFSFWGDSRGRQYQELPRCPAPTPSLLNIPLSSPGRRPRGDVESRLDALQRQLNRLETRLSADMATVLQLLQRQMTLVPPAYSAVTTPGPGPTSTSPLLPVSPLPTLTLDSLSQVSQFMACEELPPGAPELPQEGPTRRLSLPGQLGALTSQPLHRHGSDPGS

| Compound | hERG current change (%, negative = inhibition) at 1uM [%] |
| --- | --- |
| O=C(NCc1cccnc1)Nc1ccc(Cl)cc1Cl | 4.27 |
| CN(C)c1nc(OCC(=O)NC(C)(C)C)nc(N(C)C)n1 | 8.97 |
| COc1nc(NCC(C)C)nc(Oc2ccc(=O)n(-c3ccccc3)n2)n1 | 8.4 |
| Cl.Clc1ccc(COc2cccc(CNCc3ccncc3)c2)cc1 | -14.5 |
| CC1CC(C)CN(CCCNC(=O)c2ccc3c(c2)NC(=O)C(N2CCCCC2)S3)C1 (centres unmarked) | 2.06 |
| Cn1ccnc1C(=O)c1ccccc1Cl | 11.6 |
| COc1ccccc1CN(C)C(=O)C1COc2ccccc2O1 (centres unmarked) | 12.5 |
| CC1(C)C[C@H](O)[C@@]23C[C@@H](OC2=O)[C@]2(C)C(=CCC4[C@@]5(C)CC[C@H](O)C(C)(C)C5CC[C@]42C)[C@@H]3C1 (some centres unmarked) | 17.7 |
| CC(=O)c1ccc(NC(=O)Nc2ccc3c(c2)nc(C)n3C)cc1 | -7.58 |
| CC(CNc1ccc([N+](=O)[O-])c2cccnc12)Nc1c([N+](=O)[O-])cc(C(F)(F)F)cc1[N+](=O)[O-] (centres unmarked) | 13.4 |
| CC(C)(C)c1ccc(OCC(=O)Nc2ccncc2)c(Br)c1 | 17.4 |
| CC(C)c1ccc(NC(=O)C2CCN(S(C)(=O)=O)CC2)cc1 | 7.04 |
| COc1ccc(OC)c(S(=O)(=O)Nc2cc(C)on2)c1 | 13 |
| COc1cc(S(=O)(=O)N2CCOCC2)ccc1NC(=O)COc1ccc(N(C)S(=O)(=O)c2ccc(C)cc2)cc1 | 13.1 |
| CCn1c(SCc2ccc(C(=O)O)cc2)nnc1-c1ccc(Cl)cc1 | 21 |
| CCN(CC)S(=O)(=O)c1ccc2c(c1)c(=O)c(C(=O)N1CCN(c3ccccc3)CC1)cn2C | -5.24 |
| Cn1c(NC(=O)c2cccs2)c(-c2cccs2)c(=O)c2ccccc21 | 4.65 |
| COc1ccc(C(=O)C2CCCN(Cc3ccc(C#CCCO)cc3)C2)c(OC)c1 (centres unmarked) | -8.86 |
| Cc1cc(=O)oc2cc(OCC(=O)Nc3c(Cl)cccc3C(F)(F)F)ccc12 | 2.47 |
| Cc1[nH]c2ccc(-c3nnc(SCC(=O)N4CCCc5ccccc54)o3)cc2c1C | 7.95 |
| Cc1ccc(OCC(O)Cn2c(=N)n(CCN3CCOCC3)c3ccccc32)cc1.Cl (centres unmarked) | -9.7 |
| O=C(Cc1ccccc1)N1CCC(c2nc(-c3ccc(F)cc3)no2)CC1 | -7.26 |
| O=C1CC(NS(=O)(=O)c2cccs2)CN1c1ccc(Cl)cc1 (centres unmarked) | 13.2 |

Source: publication PMC4336329 (PLoS ONE, 2015)
